Results published in PubChem BioAssay AID360 (National Center for Advancing Translational Sciences (NCATS), 2006).
Hit rate of the full screen: of about 48,000 compounds, about 550 (1.1%) were called active. Not shown: some 4% with an inconclusive outcome. No stated cut-off is given here; in the data, active means potency below about 15 µM; inconclusive means mostly about 16 µM to 33 µM; inactive means weaker than that. This is one part of the list.

molecular target: Lysosomal acid glucosylceramidase (Homo sapiens) (UniProt P04062); assay: Glucocerebrosidase; conditions: purified enzyme, resorufin glucoside fluorescence (screen aimed at inhibitors), 20 min;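 further: the screen sought inhibitors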
Sequence of UniProt P04062 (P04062 whole entry, looked up): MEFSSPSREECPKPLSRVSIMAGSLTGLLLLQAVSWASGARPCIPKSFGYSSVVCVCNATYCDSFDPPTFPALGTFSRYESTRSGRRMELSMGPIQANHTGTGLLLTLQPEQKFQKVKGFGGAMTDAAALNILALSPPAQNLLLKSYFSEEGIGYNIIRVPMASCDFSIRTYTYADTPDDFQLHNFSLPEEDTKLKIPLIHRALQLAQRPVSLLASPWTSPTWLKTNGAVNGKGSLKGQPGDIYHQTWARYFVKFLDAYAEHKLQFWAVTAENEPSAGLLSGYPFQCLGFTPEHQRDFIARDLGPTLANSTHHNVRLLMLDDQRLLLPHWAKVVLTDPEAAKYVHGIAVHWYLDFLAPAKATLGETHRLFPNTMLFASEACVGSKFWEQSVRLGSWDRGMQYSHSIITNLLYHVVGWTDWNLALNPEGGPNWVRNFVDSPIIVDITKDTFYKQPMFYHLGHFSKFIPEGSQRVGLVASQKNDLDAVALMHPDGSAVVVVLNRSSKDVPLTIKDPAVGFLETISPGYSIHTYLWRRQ
Summary of the method: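 Normal human glucocerebrosidase (0.2 nM final) was assayed with resorufin β-D-glucopyranoside (30 uM final) in 50mM citric acid/KH2PO4, 10mM sodium taurocholate, 0.01% tween-20, pH 5.9. Compounds were titrated; fluorescence (Ex 548, Em 600) read after 20 min at RT.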
Potency means the concentration at half of the fitted maximal effect.

Potency, inactive:
CCN(CC)S(=O)(=O)c1ccc(/C(O)=C2/C(=O)C(=O)N(CCOC)C2c2ccccc2)cc1 (centres undefined) > 76.9 µM, CCN(CC)CCCNC(=O)C1CCN(C(=O)c2cc3sccc3n2Cc2ccc(F)cc2)CC1 > 76.9 µM, C=CCn1c(SC/C=C/c2ccccc2)nnc1-c1sc(N)nc1C > 76.9 µM, Cc1noc(C)c1S(=O)(=O)N1CCC(C(=O)NC2CCCc3ccccc32)CC1 (centres undefined) > 76.9 µM, O=C(N1CCOCC1)N1CCC(n2nnc3ccccc32)CC1 > 76.9 µM, Cc1ccc(Cn2c(NCCCn3ccnc3)nc3c2c(=O)n(C)c(=O)n3C)cc1 > 76.9 µM, CCOc1ccc(C2CC(=O)NC3=C2C(=O)CCC3)cc1 (centres undefined) > 76.9 µM, Cc1oc(-c2ccc(Cl)cc2)[n+]([O-])c1C > 76.9 µM, O=C(C1CCC1)N1CCc2cc(S(=O)(=O)N3CCN(c4ccccn4)CC3)ccc21 > 76.9 µM, CC(=O)N=c1ncn(CC(COC(C)=O)OC(C)=O)c2nc[nH]c12 (centres undefined) > 76.9 µM, CCN1C(=O)C(NC(C)=O)c2cc(OC)ccc21 (centres undefined) > 76.9 µM, CCCc1cc(=O)[nH]c(SCC(=O)N(C)Cc2ccccc2)n1 > 76.9 µM, Cc1ccc(S(=O)(=O)N2CCC(C(=O)N3CCC[C@H]3C(=O)NC3CCS(=O)(=O)C3)CC2)cc1 (some centres undefined) > 76.9 µM, O=C(Cc1c[nH]c2ccccc12)NCc1ccc2c(c1)OCO2 > 76.9 µM, COc1cc(S(=O)(=O)N2CCN3CCCC3C2)ccc1-n1cnnn1 (centres undefined) > 76.9 µM, COCCC(=O)NC12CC3CC(CC(C3)C1)C2 > 76.9 µM, Cc1nn(-c2ccccc2)c(CC(C)(C)C(=O)O)c1C(=O)O > 76.9 µM, O=C(CCN1CCCCCC1)Nc1ccc(F)cc1 > 76.9 µM, O=C(NCc1ccccc1)c1noc2c1CCCCC2 > 76.9 µM, COc1ccc(N2CCN(Cc3nc4c(c(=O)[nH]c(=O)n4C)n3CCCc3ccccc3)CC2)cc1 > 76.9 µM, CCOc1ccc2nc(NC(=O)C(NS(=O)(=O)c3cccs3)C(C)C)sc2c1 (centres undefined) > 76.9 µM, O=C(O)c1cccc(S(=O)(=O)Nc2ccc3oc(=O)sc3c2)c1 > 76.9 µM, COc1ccc(C2CC(c3cc(Br)ccc3F)n3nnnc3N2)cc1 (centres undefined) > 76.9 µM, COC(=O)c1oc2nc(C)cc(C)c2c1N > 76.9 µM, CCn1c(COc2ccccc2C)nnc1SCC(=O)OC > 76.9 µM, CCC(=O)N1CCc2cc(Br)cc(S(=O)(=O)C3(C(=O)OC)CC3)c21 > 76.9 µM, CC(C)(C)n1ncc2c(=O)n(CC(=O)NCc3ccccc3Cl)cnc21 > 76.9 µM, Cc1nnc(SCC(=O)N2CCC(c3noc4ccc(F)cc34)CC2)s1 > 76.9 µM, CCOc1cccc(/C(O)=C2/C(=O)C(=O)N(CCOC)C2c2ccncc2)c1 (centres undefined) > 76.9 µM, O=C(Cn1nnc(-c2ccccc2NC(=O)c2ccccc2F)n1)NCc1ccco1 > 76.9 µM, Cc1cc(C(=O)COc2ccc3ccc(=O)oc3c2)c(C)n1Cc1cccs1 > 76.9 µM, COc1ccc(C2C(C(=O)N3CCCC3)CC(=O)N2c2ccc(OC)cc2)cc1 (centres undefined) > 76.9 µM, COC(=O)C1CCN(S(=O)(=O)Cc2ccccc2)CC1 > 76.9 µM, Cc1cc(NC(=O)CSc2nnc(C3COc4ccccc4O3)o2)no1 (centres undefined), COc1ccc(C2/C(=C(/O)c3ccccc3)C(=O)C(=O)N2CCN2CCOCC2)c(OC)c1 (centres undefined) > 76.9 µM, Cc1ccccc1OCCC(=O)Nc1c(C)n(C)n(-c2ccccc2)c1=O > 76.9 µM, CN(Cc1ccccc1)C1CC(=O)N(c2ccc(C(=O)O)cc2)C1=O (centres undefined) > 76.9 µM, COC(=O)CSc1nc2c(c(=O)n(C)c(=O)n2C)n1CCCc1ccccc1 > 76.9 µM, COC(=O)c1ccccc1NC(=O)CN(C)S(=O)(=O)c1cc(C)ccc1OC > 76.9 µM, O=C(NCc1ccc2[nH]c3c(c2c1)CCCC3)N1CCOCC1 > 76.9 µM, COc1ccccc1CNC(=O)C(NC(=O)C1CCCCC1)C(C)C (centres undefined) > 76.9 µM, COc1ncnc(OC)c1NC(=O)c1ccc(F)cc1 > 76.9 µM, Cc1nc2nc(C)c(CCC(=O)N3CCOCC3)c(C)n2n1 > 76.9 µM, COc1ccc(-c2noc(CCC(=O)Nc3cccc(C)c3)n2)cc1 > 76.9 µM, COc1ccccc1CN1C(=O)CN(C2CCCC2)C(=O)C1c1ccc(F)cc1 (centres undefined) > 76.9 µM, CCn1c(CSc2nc(C)cc(C)n2)nnc1SCC(=O)Nc1nc(-c2ccccc2)cs1 > 76.9 µM, CCn1c(N)c(C(=O)Nc2ccccc2C(=O)OC)sc1=S > 76.9 µM, COc1ccc(OC)c(S(=O)(=O)N(C)CC(=O)N2CCN(c3ccccc3F)CC2)c1 > 76.9 µM, CCCn1c(C)cc(C(=O)CSc2nnc3n(CCC)c(=O)c4ccccc4n23)c1C > 76.9 µM, O=C(OCC(=O)N1CCCc2ccccc21)C1CCN(S(=O)(=O)c2cccs2)CC1 > 76.9 µM, CCCCCCN1Cc2ccccc2C1 > 76.9 µM, COc1ccc(CCNC(=O)C2CCN(S(=O)(=O)c3cnc[nH]3)CC2)cc1OC > 76.9 µM, CCN(CC)CCNC(=O)Cc1c(C(=O)O)n(C)c2ccccc12 > 76.9 µM, O=C(Oc1ccc2c(c1)OCO2)c1cccs1 > 76.9 µM, CC(C)(C)c1ccc(NC(=O)CC2(C(F)(F)F)OCCO2)cc1 > 76.9 µM, O=c1cc(N2CCc3ccccc3C2)[nH]c(=O)n1-c1ccc(Cl)cc1 > 76.9 µM, COc1cccc2[nH]c3c(N4CCCC(C)C4)ncnc3c12 (centres undefined) > 76.9 µM, COC(=O)c1cc(Br)c(=O)n(CCN2CCCCC2)c1 > 76.9 µM, CCc1nc2ccccc2n(CCOCCOCCn2c(=O)c(CC)nc3ccccc32)c1=O > 76.9 µM, Oc1[nH]c2ccccc2c1C1=NCCCC1 > 76.9 µM, C=CCN1CC(c2nc3ccccc3n2Cc2ccccc2)CC1=O (centres undefined) > 76.9 µM, CN(C)C(=O)Cn1cnc2c(cnn2-c2ccccc2Cl)c1=O > 76.9 µM, COc1ccc(C2C(C(=O)Nc3ccccc3)=C(C)Nc3nc(CCCO)nn32)cc1 (centres undefined) > 76.9 µM, CCCCc1ccc(CC(=O)O)cc1 > 76.9 µM, CN(C)c1nc(N)nc(CSc2n[nH]c(-c3ccccc3)n2)n1 > 76.9 µM, N#Cc1nc(COc2ccc(Cl)cc2)oc1N1CCCC1 > 76.9 µM, O=C(c1cnc(N2CCN(c3ncccn3)CC2)c2ccccc12)N1CCN(c2ncccn2)CC1 > 76.9 µM, O=C(c1ccc(F)cc1)C1CCN(C(=O)NCc2ccccc2)CC1 > 76.9 µM, COc1cc(C)ccc1NC(=O)c1ccc(S(=O)(=O)N2CCOCC2)cc1 > 76.9 µM, O=C(COc1ccc(-c2nnco2)cc1)N1CCN(S(=O)(=O)c2ccccc2)CC1 > 76.9 µM, CCOc1ccc(C(=O)Nc2c3c(nn2-c2ccc(F)cc2)CS(=O)C3)cc1 (centres undefined) > 76.9 µM, COCC(=O)Nc1nnc(-c2cccs2)s1 > 76.9 µM, CN(Cc1cccs1)C(=O)CCc1ccc(S(=O)(=O)N2CCOCC2)cc1 > 76.9 µM, Cc1ccccc1Cn1c(-c2cncs2)nc2ccccc21 > 76.9 µM, COC(=O)C1=C(N)N(c2ccc(F)cc2)C2=C(C(=O)CCC2)C1c1ccc2c(c1)OCO2 (centres undefined) > 76.9 µM, CC1Cc2ccccc2N1S(=O)(=O)c1ccc2c(c1)n(C)c(=O)c(=O)n2C (centres undefined) > 76.9 µM, Cn1c(SCC(=O)N2CCCC2)nc2ccccc2c1=O > 76.9 µM, Cc1oc2nc(SCCCC(=O)NCCO)nc(N)c2c1C > 76.9 µM, O=C(CCC(=O)N1CCc2ccccc2C1)N1CCN(S(=O)(=O)c2ccccc2)CC1 > 76.9 µM, CC(CC(=O)NCc1ccccc1)C1CCCO1 (centres undefined) > 76.9 µM, CCN(CCCNC(=O)CCNC(=O)Cn1ccc2ccccc2c1=O)c1ccccc1 > 76.9 µM, CCC(=O)N1CCc2cc(S(=O)(=O)NC(C(=O)N3CCc4ccccc4C3)C(C)C)ccc21 (centres undefined) > 76.9 µM, O=C(CN1CCN(c2cccc(Cl)c2)CC1)N1CCCC1 > 76.9 µM, CCOc1ccccc1C(=O)NCC(=O)OCC(=O)N1C(C)CCCC1C (centres undefined) > 76.9 µM, Cc1cc2n(n1)C(c1sccc1C)Nc1c(C)cccc1-2 (centres undefined) > 76.9 µM, COc1ccc(NC(=O)N2CCn3c2nc2ccccc23)cc1 > 76.9 µM, Cn1nc(CC(=O)Nc2ccc(N3CCN(C(=O)OC(C)(C)C)CC3)cc2)c2ccccc2c1=O > 76.9 µM, CC1CCCC(C)N1C(=O)COC(=O)c1ccc[nH]c1=O (centres undefined) > 76.9 µM, CCCCOC(=O)NCN1C(=O)C2C3C=CC(C3)C2C1=O (centres undefined) > 76.9 µM
